Laboratory results as given in PubChem BioAssay AID686971 (National Center for Advancing Translational Sciences (NCATS), 2013).
Hit rate of the full screen: of about 360,000 compounds, about 7,500 (2.1%) were called active. Inconclusive results, whose numbers are uncertain, are shown with a selection of clear calls. Calls come from the whole dose curve; as a rule, active = well fitted cell-killing curve with a large enough effect; inconclusive = small, poorly fitted or top-dose-only effect, or effect the other way, or another doubt; inactive = no such curve, though single readings can be large or run the other way. No potency is given beside an inconclusive call; the fits are too rough.

test: qHTS for induction of synthetic lethality in tumor cells producing 2HG: qHTS for the HT-1080-IDH1KD cell line; conditions: HT-1080 IDH1 knockdown viability, ATP luminescence, 48 h; activity, negative = toxicity: at 46.1 µM (top of the series) unless noted;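 for activity, negative = toxicity: 0% = DMSO wells and -100% = cell-free medium wells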
Outline: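 % activity derives from luminescence (CellTiter-Glo), normalised to DMSO and no-cell wells. HT-1080-IDH1KD cells, 750/well, had 48 h compound exposure at 37 °C.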
Potency is the fitted concentration of half-maximal effect; tags give direction and shape of the fitted curve.

Compound	Potency	activity, negative = toxicity
COc1cccc(C(=O)/C=C/Nc2ccc(NC(C)=O)cc2)c1	inconclusive [cytotoxic, single point]	
COc1ccc(C(=O)/C=C/c2ccc(OC(=O)c3cc(OC)c(OC)c(OC)c3)cc2)cc1	inconclusive [cytotoxic, single point]	
C=CCc1cc(/C=C/c2nc(O)c([N+](=O)[O-])c(=O)[nH]2)cc(OC)c1O		inactive: 0.555%
Cc1ccc2occ(C(=O)c3ccco3)c(=O)c2c1	inconclusive [cytotoxic, single point]	
COc1ccc(-c2sc3ccccc3c2-c2ccc(O)cc2)cc1	inconclusive [cytotoxic, single point]	
COc1ccc(NC(=O)CSc2ccc3c4c(cccc24)C(=O)c2ccccc2-3)cc1	inconclusive [cytotoxic, single point]	
CCCCNC(=O)c1c(CSc2ccc(Cl)cc2)noc1C(=O)NCc1ccccc1		inactive: 2%
COc1cccc(C#CC2=CC(=O)CC(C)(C)C2)c1	inconclusive [cytotoxic, single point]	
O=CNCc1nc2ccccc2n1CCc1ccccc1		inactive: 21.4%
O=C(COc1ccccc1)N/N=C/c1ccc(O[C@@H]2O[C@H](CO)[C@@H](O)[C@H](O)[C@H]2O)cc1		inactive: -10.7%
CC1C/C(=N/NC(=O)c2cccc(F)c2)c2ccc(O)cc2C1 (centres undefined)		inactive: 5.1%
CC1CCCN(CC(O)COc2ccc(-c3ccccc3)cc2)C1 (centres undefined)	inconclusive [cytotoxic, partial curve]	
COc1ccc(N2CCN(c3oc(Cc4ccccc4)nc3C#N)CC2)cc1	inconclusive [cytotoxic, single point]	
Cc1ccc(NS(=O)(=O)c2c(C)[nH]c(C)c2C(=O)N2CCCC2)cc1		inactive: 2.66%
CCN(c1ccccc1)S(=O)(=O)c1ccc(C(=O)N(C)Cc2cccs2)cc1		inactive: -5.56%
CC1CCN(CC(=O)Nc2cccc(C(=O)Nc3cccc(C(F)(F)F)c3)c2)CC1	active: 23.1 µM	
Cc1ccc(C(C[N+](=O)[O-])Sc2ccc(N)cc2)cc1 (centres undefined)	active: 16.4 µM	
O=C(CNc1ccc(Br)cc1)Nc1ccc(S(=O)(=O)N2CCCCC2)cc1		inactive: -16.3%
O=C1[C@H]2[C@@H](C(=O)N1c1cc(Cl)cc(Cl)c1)[C@]1(C(=O)Nc3ccccc31)N1CCC[C@@H]21	inconclusive [cytotoxic, single point]	
CN(C(=O)NC(=O)C1=C(N2CCOCC2)/C(=C/c2ccccc2)CC1)S(C)(=O)=O	inconclusive [cytotoxic, single point]	
Cc1ccc(C)c(OCCN2C(=O)NC3(CCc4ccccc4C3)C2=O)c1 (centres undefined)		inactive: -22.4%
CCCCCc1c(-c2ccc(F)cc2F)ncn1CCc1ccccc1OC	inconclusive [cytotoxic, single point]	
Cc1cnc(NC(=O)COc2cccc3c2OC(C)(C)C3)s1	active: 6.51 µM	

Compound	Potency	activity, negative = toxicity
COc1ccc(CNC(=O)c2cccnc2Sc2ccc(Cl)cc2)cc1	inconclusive [cytotoxic, partial curve]	
COc1cc(S(=O)(=O)Nc2cccc3cn[nH]c23)c(OC)cc1C	inconclusive [cytotoxic, single point]	
Cc1nn2c(NCCCN(C)C)c3c(nc2c1-c1ccccc1)CCCC3	inconclusive [cytotoxic, single point]	
O=C(Nc1ccc2ccccc2c1)c1onc2c1CCCC2	inconclusive [cytotoxic, single point]	
Cc1cccnc1CN1CCN(C(=O)c2cc(COc3ccc4ncccc4c3)on2)CC1	inconclusive [cytotoxic, partial curve, poor fit]	
Cc1ccc(-c2c[n+](Cc3ccc(Cl)cc3)c3n2CCC3)cc1	inconclusive [cytotoxic, full curve]	
COC(=O)C1=C(C)N(Cc2ccccc2)C(=NCc2cc(OC)c(OC)c(OC)c2)N[C@H]1c1ccc(Br)cc1	inconclusive [cytotoxic, single point]	
NS(=O)(=O)c1ccc(NC(=O)Nc2ccc(C(F)(F)F)cc2)cc1	active: 20.6 µM	
C/C(=N\Nc1nc(N2CCCCC2)nc(N2CCOCC2)n1)c1ccccc1O	active: 18.4 µM	
COc1ccc(C(CCNCc2ccc(OC(C)C)cc2)C(C)C)cc1 (centres undefined)	inconclusive [cytotoxic, single point]	
Nc1ccc(S(=O)(=O)Nc2nc(-c3ccccc3)cc(-c3ccccc3)n2)cc1	inconclusive [cytotoxic, partial curve]	
O=C(COC(=O)c1cccc([N+](=O)[O-])c1)Nc1ccc(Cl)cn1		inactive: 11.4%
Cc1cccc(-n2c(C)nc3cc(C(=O)NCc4ccc5c(c4)OCO5)ccc32)c1		inactive: 9.69%
Cc1cccnc1NC(=O)/C=C/c1ccc2c(c1)OCO2		inactive: 0.241%
CC(C)N1C/C(=C/c2ccsc2)C(=O)/C(=C/c2ccsc2)C1	inconclusive [cytotoxic, full curve]	
CCNc1nc(SCCOc2ccccc2)nc(N(C)C)n1	inconclusive [cytotoxic, single point]	
COc1ccc2cc3c(N)nn(C(=O)Cc4c[nH]c5ccccc45)c3nc2c1	inconclusive [cytotoxic, partial curve]	
CC1=C(C(=O)Nc2ccc(CC(=O)NCc3ccc(OC(C)C)cc3)cc2)SCCO1	inconclusive [cytotoxic, full curve, poor fit]	
CC(C)(C)c1ccc(-c2n[nH]c(=S)n2Cc2ccccc2)cc1	inconclusive [cytotoxic, single point]	
CCN1CCN(c2ncc(C(=O)Nc3c(F)cc(F)cc3Br)c3ccccc23)CC1	inconclusive [cytotoxic, single point]	
CCn1c(=O)c(C(=O)CN2CCc3ccccc32)c(N)n(Cc2ccccc2)c1=O		inconclusive: -17.5% [cytotoxic]
CCCCn1c(/C=N/Nc2nc3ccccc3[nH]2)nc2ccccc21	active: 14.6 µM	
CCC(COC(=O)c1ccccc1)Oc1cc(NCc2ccccc2)c2ncn(C(C)C)c2c1 (centres undefined)	inconclusive [cytotoxic, single point]	

Compound	Potency	activity, negative = toxicity
COc1ccc(OCCNC(=S)Nc2cccc3ccccc23)cc1	inconclusive [cytotoxic, single point]	
O=C(Nc1nc(-c2ccccn2)cs1)Nc1ccc(F)cc1F	inconclusive [cytotoxic, partial curve]	
CC(C)Oc1ccc(CCC(=O)NNC(=O)c2ccccc2C(=O)O)cc1	inconclusive [cytotoxic, single point]	
OC(c1cccc(Cl)c1)c1ncc(-c2cccc3ccccc23)[nH]1 (centres undefined)	inconclusive [cytotoxic, single point]	
O=C(CCCCn1c(=O)c2ccccc2n(Cc2ccccc2F)c1=O)NC1CCN(Cc2ccccc2)CC1		inactive: 8.88%
CC(=O)Nc1cccc(NC(=O)c2cc(-c3cccnc3)nc3ccc(Br)cc23)c1	inconclusive [cytotoxic, single point]	
CC1(C)Cc2c(sc(/N=C/N3CCCCCC3)c2C#N)C(C)(C)N1		inconclusive: -30.7% [cytotoxic]
O=C(Nc1ccccc1C(=O)Nc1nnc(C(F)(F)F)s1)c1ccccc1	active: 4.61 µM	
c1ccc(-n2nnnc2Oc2cccc3cccnc23)cc1	inconclusive [cytotoxic, single point]	
COc1cc(/C=C/C(O)=C/C(=O)/C=C/c2ccc(O)cc2)ccc1O	inconclusive [cytotoxic, single point]	
Cc1cc(C)cc(NC(=O)c2nnn(Cc3cc(C)ccc3C)c2N)c1	inconclusive [cytotoxic, partial curve]	
COC(=O)C(C)Sc1ncnc2c1nnn2-c1ccc(F)cc1 (centres undefined)	inconclusive [cytotoxic, single point]	
Cc1cccc(NC(=O)c2cnn3ccccc23)c1C	inconclusive [cytotoxic, single point]	
COc1cccc(C(=O)O/N=C(\N)c2ccc([N+](=O)[O-])cc2)c1OC	inconclusive [cytotoxic, single point]	
CC1=C(C#N)C(NC(=O)c2cccc(Cl)c2)(C(F)(F)F)C(=O)N1 (centres undefined)		inactive: 12.5%
O=c1[nH]cccc1-c1nc2ccccc2n1Cc1cccc(Cl)c1	inconclusive [cytotoxic, partial curve, poor fit]	
COc1cc(C(O)c2nc(-c3cccc(C(F)(F)F)c3)cs2)ccc1F (centres undefined)	inconclusive [cytotoxic, single point]	
CN(C)CC/C=C1\c2ccccc2Sc2cc(F)c(Cl)cc21	active: 11.6 µM	
CC1CCN(S(=O)(=O)c2ccc(NC(=O)C3CC(=O)N(c4ccccc4)C3)cc2)CC1 (centres undefined)		inconclusive: -30.5% [cytotoxic]
COc1ccc(-c2nc(C(N)=O)c3[nH]c(=O)n(-c4ccccc4OC)c3n2)c(OC)c1	inconclusive [cytotoxic, partial curve]	
CCn1cc(S(=O)(=O)CC(=O)Nc2ccc(OC)cc2)c2ccccc21		inactive: -1.5%
Cc1ccc(S(=O)(=O)Nc2nc(C)c(NC(=O)Nc3ccc(Cl)cc3Cl)s2)cc1		inactive: -2.14%
CCC(C)(C)n1nnnc1CN1CCC(O)(c2cccc(C(F)(F)F)c2)CC1	inconclusive [cytotoxic, single point]	
